This passage reports binding results from PMC6076302.

Results are given in words; binding and its absence hold for the method and conditions named. For part of these data: Binding seen in cells or lysates may run through a third protein. Some binding calls cover weakened binding; strength is not graded here. For part of these data: Sequences can lack the tags named with a protein.

Assay [1] deals with caspy2 (endogenous, ZF4 zebrafish fibroblasts) (zebrafish (endogenous in ZF4)) (UniProt Q504J1). Put plainly: condition: only cells infected with EIB202 instead of 0909I E. piscicida; cross-linking; ZF4 cells infected with wild-type EIB202 E. piscicida (MOI 50, 2 h); Triton X-100-insoluble pellets cross-linked with DSS (4 mM, 30 min, room temperature), SDS-PAGE, anti-caspy2 blot.

For assay [2] the target is unchanged. Nature of the assay: cross-linking; ZF4 cells infected with 0909I E. piscicida (MOI 50, 2 h, with/without 10 mM glycine); Triton X-100-insoluble pellets cross-linked with DSS (4 mM, 30 min, room temperature), SDS-PAGE, anti-caspy2 blot.
Assay [3] has the same target. Put plainly: native gel or EMSA; ZF4 cells infected with 0909I E. piscicida; digitonin-solubilised lysates on 4-12% blue native PAGE with 0.5% Triton X-100, anti-caspy2 blot. (Mobility shift assays separate free from complexed probe on a gel.)
Assay [4] shares this target. Nature of the assay: condition: only cells infected with EIB202 instead of 0909I E. piscicida; native gel or EMSA; ZF4 cells infected with wild-type EIB202 E. piscicida; digitonin-solubilised lysates on 4-12% blue native PAGE with 0.5% Triton X-100, anti-caspy2 blot.
The next assay deals with T1, biotinylated-Pam3CSK4.
T1 sequence (peptide, biotin; Pam3 lipid group (as in the name Pam3CSK4)): CSKKKK
Nature of the assay: pull-down; biotinylated Pam3CSK4 on streptavidin magnetic beads, mixed with purified HA-tagged protein at 4 °C overnight, washed with PBST, anti-HA blot; both purified.

B1: caspy2 (endogenous, ZF4 zebrafish fibroblasts) (enzyme, UniProt Q504J1 1-404)
chain: MEDITQLLSDVLEDLVESELKQFTRQLWIGVKPGVEPIPRGKLENKDRQDVVDSMVQQYSEDAGTITVQTLRKIKQNERAKRLESNLLKVQSQGQENKQNSEEPQPIPQIISQPIQQIISQPINNAGSEDLQPIQADWQRPRQIIPCSQETKNTLLKAHGDDIYTPRSGTQRKGLALLITNIQFANTQHNRNGADRDEENAEWLLRSLGFAVIKYRNLSGKDIRRAVENFSKRREHEDADSTFIVIMSHGTRIDNKDAIVGVSDDVYFIEETFSHLNSVNCPALIDKPKVILIQACRGGQSSGVLAQDSVFASDSWVHMEKDFVCFMSTMPNTFAYRNPIEGSFFISYIVDVFCSSAHRDDIMELFRKVTLRMEKDQRFQGQAKLLPCIERTSISKRFYLFPGL
In the case of B1, the binding result in assay [1] is reported as “no binding”; in assay [2] it was “binds”; in assay [3], “binds”; in assay [4], “no binding”.

B2: HA-tagged caspy2 (enzyme, UniProt Q504J1 1-404)
chain: B1 chain
B2: the binding result in the assay with biotinylated-Pam3CSK4 is on record as “no binding”.

B3: HA-tagged caspy (enzyme, UniProt Q9I9L7 1-383)
chain: MAKSIKDHLQDALSNIGADNLRRFQSRLGDRKQEPRVRKSTIEKLKDEIDLVDLLVNTFTSDAVSVTVDILRGIKCNAVAEELLENTGQGGVSQPEPPVPEPIPKDPAQLKELKVTPCSQQFKNKILREKGQETYEIKDKSVRKRLALLINNVDFDDKAMKRSGSEKDEENMEKLLKELDYQVVKRPNLSAKEMDEAIRDFAQREEHKYSDSAFVVIMSHGKRDAIMGVHYHRTNNPSDSFPVDNVYRRLNSENCPALRDKPKVILIQACRGGEHGRVWASDGEPDEPIEIEDDDFVHKEKDFISLMSCTPDTKSYRHVQNGTFYVQTLVDVFIKCAHEDHIEELFRKVLRRFEHPNMIGNFKQMACKDRATLPKLFYLFPGL
On to B3, for which the binding entry with biotinylated-Pam3CSK4 was “no binding”.
